# Experimental data from the supplement of paper PMC4166925.
# ± gives the standard deviation of the averaged measurements. In all, about 33,000 sequences were measured (“E-score (dimensionless, -0.5 to 0.5)”: median about -0.049, highest 2% from about 0.37 on). This is one part of the list.
# System: T1, PmTbr T-box DNA-binding domain (GST fusion)
# T1 sequence: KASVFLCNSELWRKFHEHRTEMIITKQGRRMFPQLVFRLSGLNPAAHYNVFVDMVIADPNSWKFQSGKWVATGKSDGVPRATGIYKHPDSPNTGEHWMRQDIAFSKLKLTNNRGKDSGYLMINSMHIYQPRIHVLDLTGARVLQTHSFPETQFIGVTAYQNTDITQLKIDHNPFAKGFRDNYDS
# Test: PBM E-score of 8-mer (E-score (dimensionless, -0.5 to 0.5)); Tbr is Tbrain of the sea star Patiria miniata (Pm) or the sea urchin Strongylocentrotus purpuratus (Sp); higher = stronger binding preference; most listed sequences are background and not binding sites
# Conditions: the construct has about 5 more residues each side
# Summary of the method: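 Expression of GST-fused Tbr T-box DNA-binding domains, each holding the full T-box plus roughly five flanking residues, was carried out in BL21 E. coli at 20 °C, with purification by glutathione affinity chromatography. Universal Agilent arrays made double-stranded by primer extension were incubated with the protein at 200 nM in PBS (pH 7.5), then scanned and quantified. All ungapped 8-mers were scored from probe intensities, and each received an enrichment E-score from the Universal PBM Analysis Suite, averaged over duplicate arrays.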
row,Sequence,PBM E-score of 8-mer
1,ACTAGTCC,-0.245 ± 0.081
2,AACTCGCG,0.291 ± 0.017
3,GGGTAAGA,-0.279 ± 0.04
4,GCGCAAGC,0.00178 ± 0.048
5,ACACCAGC,0.325 ± 0.018
6,ACGCTTAA,0.0761 ± 0.011
7,TAGACTCA,-0.14 ± 0.035
8,ACTCGGTC,-0.199 ± 0.034
9,CACAGCAA,0.00532 ± 0.082
10,ACTGCTAT,-0.0314 ± 0.0091
11,GTCCCCGA,-0.155 ± 0.039
12,CGACTCAA,0.011 ± 0.024
13,CGACGTAA,-0.133 ± 0.068
14,ACCGGTAT,-0.0446 ± 0.018
15,CGGTAAAC,-0.165 ± 0.1
16,AAGGTGGA,-0.0394 ± 0.074
17,AATGGCGC,0.143 ± 0.0098
18,ATCCTGAA,0.0691 ± 0.0076
19,AGACATCG,-0.27283 ± 0.00013
20,CGATTACA,0.0563 ± 0.058
21,ATGCCAAA,0.0661 ± 0.086
22,AGTCCATC,-0.166 ± 0.027

row,Sequence,PBM E-score of 8-mer
1,TATCGGAA,-0.0916 ± 0.042
2,AATCCCAG,-0.124 ± 0.028
3,CTAGCGAC,0.2 ± 0.013
4,GTCGCTTA,0.0744 ± 0.041
5,GTGCCCTA,-0.188 ± 0.013
6,CGTCGCGA,0.204 ± 0.042
7,ACCTGGCT,0.189 ± 0.066
8,AACATGAC,0.0932 ± 0.043
9,TCGGCTCA,-0.168 ± 0.031
10,GAGTACGA,-0.0716 ± 0.025
11,GCCATGGA,-0.141 ± 0.033
12,GCAGTATA,-0.0728 ± 0.075
13,AGACTGAT,-0.155 ± 0.0098
14,GGTCGGTA,-0.162 ± 0.037
15,CGGGGGCC,-0.0779 ± 0.03
16,CACTCTGC,-0.00945 ± 0.013
17,GTCCGTGA,-0.0686 ± 0.073
18,CGTCAAGC,0.114 ± 0.017
19,CAAGAAGG,-0.101 ± 0.039
20,AATGTTCA,-0.0812 ± 0.057
21,GTGGACCA,-0.271 ± 0.013
22,GATTGCCC,-0.0679 ± 0.024

row,Sequence,PBM E-score of 8-mer
1,CGTTTGTC,0.0778 ± 0.0091
2,ACTGCTTC,-0.18 ± 0.057
3,CTAACCAC,0.0529 ± 0.069
4,AGGACTAG,-0.321 ± 0.03
5,GATGCACC,-0.0938 ± 0.034
6,TTCAAGAA,-0.172 ± 0.002
7,CCGAATGC,-0.26 ± 0.0074
8,TCCTAGCA,0.0854 ± 0.013
9,GGTTGTAA,-0.185 ± 0.08
10,CGGGCCGA,-0.232 ± 0.096
11,GCGGGGAA,0.121 ± 0.002
12,GAAGGCCC,-0.177 ± 0.028
13,CCTTCCCG,-0.194 ± 0.074
14,CTGCCAAG,-0.0294 ± 0.034
15,AGAAAAAG,-0.161 ± 0.039
16,AGTCAGGA,-0.1727 ± 0.00023
17,AGGGAAGC,-0.32 ± 0.0069
18,TCGAGAAA,0.0491 ± 0.0063
19,ACATAGCA,0.254 ± 0.043
20,TAGGAATA,-0.362 ± 0.056
21,ACTGCTCG,0.0881 ± 0.035
22,CTATTTAA,0.0722 ± 0.056

row,Sequence,PBM E-score of 8-mer
1,AGTCTGAG,0.0166 ± 0.0037
2,ATCGCGGG,0.0753 ± 0.022
3,AGTTAAGG,-0.0465 ± 0.0096
4,CTACGTGC,0.0483 ± 0.049
5,ATTTTATG,-0.0546 ± 0.13
6,CCAGTACG,-0.32 ± 0.032
7,GCAGAAGA,-0.194 ± 0.038
8,AGACATAA,-0.112 ± 0.02
9,GTCTTTAA,-0.233 ± 0.028
10,CCGTATAG,-0.11 ± 0.014
11,ACACTCCC,0.265 ± 0.042
12,CATTTTCA,0.0383 ± 0.027
13,CAGGAATA,-0.0771 ± 0.004
14,GGTCCGTA,-0.31 ± 0.0095
15,CCAAGTTA,-0.166 ± 0.023
16,TTCCGAAA,-0.148 ± 0.0043
17,ATTTAATC,-0.234 ± 0.12
18,TAAGTACA,-0.106 ± 0.042
19,GGAATAAA,-0.152 ± 0.0091
20,CGGACCTA,-0.113 ± 0.055
